# Variants at the floor of the assay are shown more often than the library holds them.
# B1: TPR 5TU (parent)
# chain: GGAUCUUCUCGAUCUAACAAAAAAGACAAAUCUGCCACAAAGCUUGAGAGCAUCUUCGGAUGCAGAGGCGGCAGCCUUCGGUGGCGCGAUAGCGCCAACGUUCUCAACUAUGACACGCAAAACGCGUGCUCCGUUGAAUGGAGUUUAUCAUG
# Variants of: B1
# Experiment: polymerase ribozyme fitness, log enrichment relative to wild type (log ratio); higher = more active; in vitro selection for triplet polymerase activity
# How it was run: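 For each subunit of a heterodimeric triplet polymerase ribozyme, a mutant library was built by PCR and transcribed, then taken through a single in vitro selection round in triplicate. Selection involved annealing to a biotinylated primer, the partner subunit and triplets, incubation frozen at −7 °C, gel excision of extended constructs, capture on streptavidin beads and RT-PCR. Genotypes were retained after Illumina sequencing of inputs and outputs only with ≥10 input reads and ≥1 read in each output. Fitness is defined as the logarithm of a genotype's enrichment relative to wild-type enrichment, using inverse-variance-weighted averages across replicates, with the logarithm taken to base 2.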
row,Variant,polymerase ribozyme fitness (log ratio)
1,A60G G126A,1.03
2,A60G G128U,-2.75
3,A60G U77C G80U A91C C99U C125U G141U,≤ -4.2
4,A60G U90G U145A,≤ -4.2
5,A60G U134G,-2.14
6,A60G U144A,-0.159
7,A60U,-0.665
8,A60U A150C,-3.39
9,A60U C76G G84U,≤ -4.2
10,A60U C79U A98G C103A,≤ -4.2
11,A60U C85U C87A G143A,≤ -4.2
12,A60U C85U G88U C99U,≤ -4.2
13,A60U C93U,-3.16
14,A60U C99U U148A G152A,≤ -4.2
15,A60U G83C C85A C96U G133U U135A,≤ -4.2
16,A60U G84A C116U,-1.05
17,A60U G84U,-1.58
18,A60U G84U U102G,-4.18
19,A60U G136C U139G,-3.71
20,A60U G143A,-1.07
21,A60U U101A U151C,≤ -4.2
22,A60U U139A A150U,≤ -4.2
23,U61A A97G U130G C132G,≤ -4.2
24,U61A A113C C125U,≤ -4.2

row,Variant,polymerase ribozyme fitness (log ratio)
1,U61A A147U,-0.329
2,U61A C69A C85A U139A C149G,≤ -4.2
3,U61A C75G,-3.89
4,U61A C76G A137U U148G,≤ -4.2
5,U61A C79A G133A,≤ -4.2
6,U61A C85A G141C,-2.36
7,U61A C85G U111G U134G,≤ -4.2
8,U61A C85U A97C A120G,-3.26
9,U61A C85U A106C U111C G133A,≤ -4.2
10,U61A C87U G92A A106G A122U,-2.84
11,U61A C95A C108A C125A G140U,≤ -4.2
12,U61A C105U U134G U139G,-4.18
13,U61A C125U,-1.86
14,U61A C149A,≤ -4.2
15,U61A G67A G94C U145G A147U,≤ -4.2
16,U61A G74A C85U C93U A107G,≤ -4.2
17,U61A G74U C75U A121C,≤ -4.2
18,U61A G80C,≤ -4.2
19,U61A G84A U90G A119C C123A U148A,≤ -4.2
20,U61A G84C C85A C103G,≤ -4.2
21,U61A G94A,-2.08
22,U61A G124C,-2
23,U61A U77A C87A U101A A119U G126C,≤ -4.2
24,U61A U102G,≤ -4.2

row,Variant,polymerase ribozyme fitness (log ratio)
1,U61A U102G A106U G143A U151A,≤ -4.2
2,U61C C85A A121G U135A,≤ -4.2
3,U61C G92A A120C C123A U144C,≤ -4.2
4,U61C G126A,-0.237
5,U61C G152A,≤ -4.2
6,U61G A66C A150G,≤ -4.2
7,U61G A73U C93A,≤ -4.2
8,U61G A91U C96G G141C,≤ -4.2
9,U61G C93A,-4.13
10,U61G C93A G140C U144G,≤ -4.2
11,U61G C96U,-1.29
12,U61G C96U U144G,-1.1
13,U61G C99U,-2.77
14,U61G G68A U77C C87U C93G C123U G126C U135C,≤ -4.2
15,U61G G68C C69U G84A C95G U127C G152U,≤ -4.2
16,U61G U82C A89U A120U U135A,-2.52
17,G62A A66G G70A C125U,≤ -4.2
18,G62A C63G C105G,≤ -4.2
19,G62A C69A C75G A115G,≤ -4.2
20,G62A C69U U77A C85G C118U U148C,≤ -4.2
21,G62A C75A A91U U111G,≤ -4.2
22,G62A C76G G83U U135A,≤ -4.2
23,G62A C99U,-2.24
24,G62A G65A G117U U144A,-3.79

row,Variant,polymerase ribozyme fitness (log ratio)
1,G62A G65U G70U G88A C95U,≤ -4.2
2,G62A G68C C87U,≤ -4.2
3,G62A G70A G71A G80C C87U C108U,≤ -4.2
4,G62A G88A G126U,≤ -4.2
5,G62A G100A G126U U148C,≤ -4.2
6,G62A G141U,1.11
7,G62A U130G,-3.67
8,G62C A115C,-1.06
9,G62C C69U G92A G128A G141A,≤ -4.2
10,G62C C72U A107G A113U,≤ -4.2
11,G62C C75U G84U C95A C99A,≤ -4.2
12,G62C C87A U90A G136C,≤ -4.2
13,G62C C95U U146G,≤ -4.2
14,G62C C96A G124A A150G,≤ -4.2
15,G62C G71U A150G,≤ -4.2
16,G62C G80U G141A,≤ -4.2
17,G62C G83A,-2.25
18,G62C G94C,-2.03
19,G62C U78C C79U G136U,≤ -4.2
20,G62U A66G G68C G92A U104G G140U,≤ -4.2
21,G62U C99A A121C,≤ -4.2
22,G62U G100U U139G,≤ -4.2
23,G62U U90C,≤ -4.2
24,G62U U102A,-1.64

row,Variant,polymerase ribozyme fitness (log ratio)
1,C63A C76G C85U C96U A97G C116G,≤ -4.2
2,C63A C87U G88A A115U,≤ -4.2
3,C63A G92U C116U,-3.98
4,C63G A64C C72U C95U C105G A120U G141U,≤ -4.2
5,C63G C76U A91U G141U,≤ -4.2
6,C63G G81C U82A,-0.391
7,C63G G133U,-4.14
8,C63G U78A C79U C85U A98G A106U U134C A142G U146A,≤ -4.2
9,C63G U102G C105U,≤ -4.2
10,C63U A64G G67C A97C A110U G126A A150C,≤ -4.2
11,C63U A66G G83C A91G C93U A106G C114G G128A G141A,≤ -4.2
12,C63U A91U C93G U139G,≤ -4.2
13,C63U C69A C87A G140C,≤ -4.2
14,C63U C75U C76U G80A U82A C108G C114U U148C,≤ -4.2
15,C63U C76A C103G U146G U148G,≤ -4.2
16,C63U C85A C108G A110G,≤ -4.2
17,C63U C85G U127A U139A U145C,≤ -4.2
18,C63U C85U C87U,-0.425
19,C63U C93A C116G A142U G143C,≤ -4.2
20,C63U C103G U146G,-2.3
21,C63U G65A A73U A115G U134G,≤ -4.2
22,C63U G67A,≤ -4.2
23,C63U G70A C85G A138C,≤ -4.2
24,C63U G70A G80C G83C C108G C116U,≤ -4.2

row,Variant,polymerase ribozyme fitness (log ratio)
1,C63U G94C C132U G141A,≤ -4.2
2,C63U U82G G126A G140A,-3.92
3,A64C C69G U144G,≤ -4.2
4,A64C C72U G86A G88U A106C A122U,≤ -4.2
5,A64C C75G U82G C95A C96U A107U G140C,≤ -4.2
6,A64C C76A G81A,≤ -4.2
7,A64C C85A,≤ -4.2
8,A64C C85A C118G A121C,≤ -4.2
9,A64C C85U G94U A121G,≤ -4.2
10,A64C C87G C99A U151A,≤ -4.2
11,A64C G65U G68U G80A C93A C103U C125U,≤ -4.2
12,A64C G71U A91G A150C,≤ -4.2
13,A64C G83C A89U U134A G141A,≤ -4.2
14,A64C G88C C99U,≤ -4.2
15,A64C G88U A89G G117C C131G,≤ -4.2
16,A64G A66C,≤ -4.2
17,A64G C69A C85G G100U U145A,≤ -4.2
18,A64G C69A G71A U90A C96U A115C U144G,≤ -4.2
19,A64G C69G C75A C85A A89U C93A U104G,≤ -4.2
20,A64G C75G G84U U127A A142U,≤ -4.2
21,A64G C99A G143A,≤ -4.2
22,A64G G67C C95U A110G U139A,≤ -4.2
23,A64G G68A,≤ -4.2
24,A64G G80A A91G,≤ -4.2

row,Variant,polymerase ribozyme fitness (log ratio)
1,A64G G88U U101G C103G U146G,≤ -4.2
2,A64U A66U G94C A106G G133C A150G,≤ -4.2
3,A64U A73C C87U C93U A137G A138C,≤ -4.2
4,A64U A97G U111G A142U U145A,≤ -4.2
5,A64U C75G G80C C85A G100U U146A,≤ -4.2
6,A64U C87A U111G G141U,≤ -4.2
7,A64U C96A U111C C114G A147U,≤ -4.2
8,A64U C96U C105G G141A A147G,≤ -4.2
9,A64U C105G U148C,≤ -4.2
10,A64U G67C G74A C76A A91U A106C C125U,≤ -4.2
11,A64U G83C G143C,≤ -4.2
12,A64U G92A C95A U101C C105U C123A G124C U145G U148G,≤ -4.2
13,A64U G92C,≤ -4.2
14,A64U U148G,≤ -4.2
15,G65A A110U C114G G143A,≤ -4.2
16,G65A C69G U78A U90G C96A G100A C108A U145A,≤ -4.2
17,G65A C72G C85U C93U A106G,≤ -4.2
18,G65A C85A,-2.26
19,G65A C85U U102G C132A,≤ -4.2
20,G65A C105U,-0.804
21,G65A G70A G133U U144G,≤ -4.2
22,G65A G71U C85A,≤ -4.2
23,G65C A89C G92A U102G C116U A137G,≤ -4.2
